Experimental data reported in PubChem BioAssay AID485297 (National Center for Advancing Translational Sciences (NCATS), 2010).
The campaign covered roughly 320,000 compounds. About 9,100 (2.8%) were called active. Inconclusive results, whose numbers are uncertain, are shown with a selection of clear calls. Calls follow the shape of the dose curve; as a rule, active = well fitted activation curve with a large enough effect; inconclusive = small, poorly fitted or top-dose-only effect; inactive = no such curve, though single readings can be large or run the other way. No potency is given beside an inconclusive call; the fits are too rough.
Potency is read from the fitted curve at half-maximal effect; tags tell the direction and shape of the fitted curve.

Experiment: qHTS Assay for Rab9 Promoter Activators; also: nearly all actives have a fitted effect of over 60% in size
Settings: Huh7 Rab9 promoter-luciferase reporter, luminescence, 24 h; series mostly up to 9.22 µM
Outline: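 Luminescence from Amplite-detected luciferase (10 minutes, ambient) reports Rab9 promoter activation. Before that, stable Rab9-luciferase Huh7 cells (1500/well, reduced-serum OP-MEM I plus 10% FBS) were exposed to compound for 24 hours at 37C.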
For `Cc1csc(N/N=C/c2ccccc2F)n1`, the Potency was “inactive”.
In the case of `CCOc1ccc(NC(=O)c2cccc3c2C(=O)N(CC2CCCO2)C3)cc1` (stereo not drawn), the Potency is reported as “inactive”.
For `Cc1cccnc1NC(=S)NC(=O)/C=C/c1ccco1`, the Potency was inconclusive [activator, single point].
For `N/C(=N\N=C\c1cccc(O)c1)c1nonc1N`, the Potency was inconclusive [activator, single point].
In the case of `Cc1ccc(C(=O)O/N=C(\N)Cc2cccs2)cc1[N+](=O)[O-]`, the Potency is reported as active: 3.16 µM.
In the case of `CC(=O)Nc1ccc(S(=O)(=O)N2CCC(c3nnc(-c4ccc(C)cc4)o3)CC2)cc1`, the Potency is reported as “inactive”.
In the case of `CC(C)(C)NC(=O)NC(=O)COC(=O)c1cccc(S(=O)(=O)N2CCCCC2)c1`, the Potency is reported as “inactive”.
With `O=C1N=c2ccccc2=C1c1sc(NS(=O)(=O)Cc2ccccc2)nc1O` the Potency was “inactive”.
With `O=C(Cc1cccs1)NCc1ccc(Cl)cc1Cl` the Potency was active: 2.82 µM.
In the case of `C/C(=N/NC(=O)c1ccc(C)s1)c1ccncc1`, the Potency is reported as inconclusive [activator, single point].
For `COC(=O)CCC(=O)NC(=S)Nc1ccc(S(=O)(=O)N2CCCC2)cc1`, the Potency was “inactive”.
For `Cc1occc1C(=O)N/N=C/c1ccccn1`, the Potency was inconclusive [activator, partial curve].
With `CCN(CC)S(=O)(=O)c1ccc(Cl)c(C(=O)Nc2nnc(C)s2)c1` the Potency was “inactive”.
In the case of `COc1ccc(N2CCN(C(=O)COC(=O)CCc3ccccc3)CC2)cc1`, the Potency is reported as “inactive”.
With `CC(C)(C)c1ccc(C(=O)Nc2ccccc2Cl)cc1` the Potency was active: 0.708 µM.
With `Cc1ccc(C(=O)NC(=S)Nc2cccc3c(C)cc(C)nc23)cc1` the Potency was inconclusive [activator, partial curve].
In the case of `COc1ccc(C2/C=C\CN(C(=O)c3ccc(C)cc3)[C@H](Cc3ccccc3)C(=O)N2Cc2ccc(F)cc2)cc1` (stereo partly drawn), the Potency is reported as “inactive”.
For `Cc1ccc(NC(=O)CN(C)S(=O)(=O)c2cccc3cccnc23)cc1`, the Potency was “inactive”.
For `O=C(Nc1ccccc1)Nc1ccc2snnc2c1`, the Potency was inconclusive [activator, single point].
For `CNC(=O)c1cc2c(ccc3ccccc32)o1`, the Potency was inconclusive [activator, single point].
With `CC(=O)c1cnc(SCC(=O)O)nc1C` the Potency was inconclusive [activator, single point].
For `CC(C)c1ccc(NC(=O)c2ccccc2NC(=O)C2CCCCC2C(=O)O)cc1` (stereo not drawn), the Potency was inconclusive [activator, single point].
With `CCCCN(C(=O)COC(=O)COc1c(C)cc(C)cc1C)c1c(N)n(CCC)c(=O)[nH]c1=O` the Potency was “inactive”.
In the case of `CC(C)n1c(-c2ccc(N(C)C)cc2)nc2ccccc21`, the Potency is reported as inconclusive [activator, single point].
With `N/C(=N\OC(=O)CCC1CCCCC1)c1cccc([N+](=O)[O-])c1` the Potency was “inactive”.
In the case of `CN(C)c1ccc(/C=N/NC(=O)c2cccc(C(=O)N/N=C/c3ccc(N(C)C)cc3)n2)cc1`, the Potency is reported as “inactive”.
In the case of `COc1ccc(N2C(=O)c3ccccc3NC2c2ccc(OC)c(COc3ccccn3)c2)cc1` (stereo not drawn), the Potency is reported as inconclusive [activator, single point].
In the case of `COc1ccc(-c2cc(C(F)(F)F)n3nc(C(=O)Nc4c(C)n(C)n(-c5ccccc5)c4=O)cc3n2)cc1`, the Potency is reported as “inactive”.
For `O=C(O)c1ccc(N=Nc2c(-c3ccccc3)[nH]oc2=O)cc1`, the Potency was inconclusive [activator, partial curve].
For `c1coc(CNc2nc(-c3cccs3)cs2)c1`, the Potency was inconclusive [activator, partial curve].
In the case of `CCn1c(C)cc(/C=C2/SC(=O)N(C(C)C(=O)OC)C2=O)c1C` (stereo not drawn), the Potency is reported as active: 3.98 µM.
For `COc1ccc(/C=N/OCC(=O)Nc2nc3ccccc3s2)cc1OC`, the Potency was “inactive”.
In the case of `O=C(Nc1cccnc1)c1ccc(Oc2ccccc2)cc1`, the Potency is reported as inconclusive [activator, single point].
In the case of `CCOC(=O)N1CCN(C(=O)CSCC(=O)Nc2nc(-c3ccc4c(c3)OCO4)cs2)CC1`, the Potency is reported as inconclusive [activator, partial curve, poor fit].
With `COc1ccccc1-n1c(C)cc(/C=C2/C(=N)N3C(=NC2=O)SN=C3S(C)(=O)=O)c1C` the Potency was inconclusive [activator, single point].
In the case of `C=CCn1cccc(C(=O)Nc2ccc(C)c(C)c2)c1=O`, the Potency is reported as active: 2.24 µM.
With `Oc1ccccc1/C=N/c1c(-c2ccco2)nc2ccccn12` the Potency was inconclusive [activator, partial curve].
With `O=C(Nc1ncc(Cc2cccc(Cl)c2)s1)c1cccs1` the Potency was inconclusive [activator, partial curve].
With `COc1ccc(Nc2n[nH]c(C)c2[N+](=O)[O-])cc1` the Potency was active: 3.55 µM.
For `O=C1c2ccccc2C(=O)N1CCSc1ccccc1`, the Potency was inconclusive [activator, full curve].
For `O=C(COc1ccc(S(=O)(=O)N2CCCC2)cc1)N1CCN(c2ccccc2F)CC1`, the Potency was “inactive”.
With `COc1ccc(NC(=O)CN2C(=O)NC(C)(c3ccccc3)C2=O)cc1Cl` (stereo not drawn) the Potency was “inactive”.
With `CC1CCCCC1NC(=O)Cn1[nH]c(=O)c2ccccc2c1=O` (stereo not drawn) the Potency was “inactive”.
With `CCCNC(=O)c1noc2c1CCc1ccccc1-2` the Potency was inconclusive [activator, partial curve].
In the case of `Cc1ccc(SCC(=O)Nc2ccccc2C(=O)O)cc1`, the Potency is reported as inconclusive [activator, partial curve].
With `COCc1c(C(=O)N2CCN(S(=O)(=O)c3ccccc3Cl)CC2)oc2ccccc12` the Potency was “inactive”.
For `Cc1ccc(C)c2nc3sc(C(=O)N4CCOCC4)c(N)c3cc12`, the Potency was inconclusive [activator, single point].
With `O=C(O)CNC(=O)c1ccc(Oc2c(F)c(F)c(Oc3ccc(C(=O)NCC(=O)O)cc3)c(F)c2F)cc1` the Potency was “inactive”.
For `O=C1CCCCN1CCc1c[nH]c2ccccc12`, the Potency was inconclusive [activator, single point].
In the case of `CC1Cc2ccccc2N1C(=O)COc1ccc2c(c1)OCO2` (stereo not drawn), the Potency is reported as inconclusive [activator, partial curve].
In the case of `COc1ccc(C(=O)Nc2ccccc2C(=O)Nc2ccccn2)cc1`, the Potency is reported as inconclusive [activator, partial curve].
In the case of `C[C@H](NC(=O)[C@@H]1Cc2ccccc2CN1)C(=O)Nc1ccc2c(c1)OCCO2`, the Potency is reported as “inactive”.
For `Cc1cc(Cl)ccc1NC(=S)Nc1ccccn1`, the Potency was inconclusive [activator, single point].
In the case of `O=C(/C=C/Nc1ccc(Br)cc1F)c1ccco1`, the Potency is reported as active: 0.708 µM.
For `COC(C(=O)N/N=C(\C)c1ccc(C)cc1)c1ccccc1` (stereo not drawn), the Potency was inconclusive [activator, single point].
For `CCc1ccc(OCCCC(=O)Nc2ccc(S(N)(=O)=O)cc2)cc1`, the Potency was “inactive”.
In the case of `CN(C)c1ccc(C(=O)C(=O)c2ccccc2)cc1`, the Potency is reported as inconclusive [activator, partial curve].
In the case of `Cc1cccc2c1OCC/C2=N\NC(=O)COc1ccccc1`, the Potency is reported as inconclusive [activator, partial curve].
For `Cc1ccc(/C=C2\SC(=S)N(CC3CCCO3)C2=O)o1` (stereo not drawn), the Potency was inconclusive [activator, single point].
For `Cc1cc2c(s1)c(C#N)c(C(=O)NCc1ccccc1F)n2C`, the Potency was “inactive”.
For `COc1ccc(-c2nc3ccc([N+](=O)[O-])cc3[nH]2)cc1`, the Potency was active: 1.12 µM.
For `COc1ccc(-c2cc(-c3ccccc3O)[nH]n2)cc1OC`, the Potency was active: 3.98 µM.
For `C(=N\N1CCN(C2c3ccccc3-c3ccccc32)CC1)/c1cccnc1`, the Potency was “inactive”.
With `O=C(NCc1ccc(F)cc1)Nc1ccccc1` the Potency was inconclusive [activator, partial curve].
For `CN(CC(=O)N1CCCCCC1)S(=O)(=O)c1ccccc1`, the Potency was inconclusive [activator, partial curve].
For `O=C(/C=C/c1ccco1)Nc1ccc2nc3n(c(=O)c2c1)CCCC3`, the Potency was inconclusive [activator, single point].
In the case of `CCn1c(SCC(=O)c2ccc(Cl)cc2)nnc1-c1cccs1`, the Potency is reported as “inactive”.
With `Cc1cc(C)nc(Nc2ccc(C(=O)O)cc2)n1` the Potency was active: 1.78 µM.
For `Oc1ccc(Br)cc1/C=N/n1cnc2ccccc21`, the Potency was inconclusive [activator, single point].
With `Cc1c(Br)c(C(=O)N2CCc3ccccc32)nn1C` the Potency was inconclusive [activator, partial curve].
In the case of `CCCCNc1ncnc2c1cnn2-c1ccccc1`, the Potency is reported as inconclusive [activator, full curve].
In the case of `C/C(=N/OC(=O)c1ccc(C(F)(F)F)cc1)c1oc(C)nc1C`, the Potency is reported as “inactive”.
With `O=C(OCC(=O)N1CCCC1)c1ccc(O)cc1` the Potency was inconclusive [activator, single point].
In the case of `Cc1cc(NC(=O)CSc2nnc(-c3ccc4c(c3)OCCO4)o2)no1`, the Potency is reported as inconclusive [activator, partial curve].
With `O=C1C2C3C=CC(C4CC34)C2C(=O)N1/N=C/c1ccc([N+](=O)[O-])s1` (stereo not drawn) the Potency was inconclusive [activator, single point].
For `CCN1/C(=C\C(=S)Nc2ccccc2)Sc2ccccc21`, the Potency was active: 2.82 µM.
With `N#C/C(=C/Nc1ccccc1F)S(=O)(=O)c1ccc(Cl)cc1` the Potency was “inactive”.
With `O=C1NC2(CCCCC2)C(=O)N1/N=C/c1ccccc1Br` the Potency was inconclusive [activator, single point].
